Data published in patent US7022716B2, “Cyclic amine phenyl beta-3 adrenergic receptor agonists” (Wyeth, priority 2000, dated 2006).
At least one compound was matched to its structure with a doubt left.

molecular target: T1, human β3 adrenergic receptor (Homo sapiens, UniProt P13945); assay: cAMP (SPA) response in CHO cells transfected with human β3 adrenergic receptor; type: cell-based; parameters: key: fraction of maximal isoproterenol (10^-5 M) response; conditions: maximal response relative to maximal response of isoproterenol at 10^-5 M
T1 construct: Full length β3 AR clones (402 amino acids) containing the last 6 amino acids of hβ3-AR are prepared; expressed in transfected cells; host or cells: CHO (Chinese hamster ovary) cells
Method: Binding to the receptors was measured in Chinese Hamster ovary (CHO) cells that were transfected with adrenergic receptors.
The corresponding primer sequences are described in Mantzoros, C. […] The four fragments are ligated into a pUC 18 plasmid (Gibco-BRL) and sequenced.
CHO cells were grown in 24-well tissue culture plates in Dulbecco's Modified Eagle Media with 10% fetal bovine serum, MEM non-essential amino acids, Penicillin-Streptompycin and Geneticin. On the day of test procedure, growth medium was replaced with preincubation media (Dulbecco's Modified Eagle, Media) and incubated for 30 minutes at 37° C. […] Test compounds were tested over a concentration range of 10^−9 M to 10^−5 M for β3 cells and 10^−8 to 10^−4 M for β1 and β2 transfected cells. Isoproterenol (10^−5 M) was used as an internal standard for comparison of activity. Cells were incubated at 37° C. on a rocker for 30 min with the β3 cells and 15 min for β1 and β2 cells. Incubation was stopped with the addition of 0.2N HCl and neutralized with 2.5N NaOH. The plates, containing the cells and neutralized media, were stored at −20 degrees celsius until ready to test for cAMP using the SPA test kit (Amersham).
Data Analysis and Results: Data collected from the SPA test procedure were analyzed as percent of the maximal isoproterenol response at 10^−5 M. Activity curves were plotted using the SAS statistical and graphics software.

T1 sequence (P13945 whole entry): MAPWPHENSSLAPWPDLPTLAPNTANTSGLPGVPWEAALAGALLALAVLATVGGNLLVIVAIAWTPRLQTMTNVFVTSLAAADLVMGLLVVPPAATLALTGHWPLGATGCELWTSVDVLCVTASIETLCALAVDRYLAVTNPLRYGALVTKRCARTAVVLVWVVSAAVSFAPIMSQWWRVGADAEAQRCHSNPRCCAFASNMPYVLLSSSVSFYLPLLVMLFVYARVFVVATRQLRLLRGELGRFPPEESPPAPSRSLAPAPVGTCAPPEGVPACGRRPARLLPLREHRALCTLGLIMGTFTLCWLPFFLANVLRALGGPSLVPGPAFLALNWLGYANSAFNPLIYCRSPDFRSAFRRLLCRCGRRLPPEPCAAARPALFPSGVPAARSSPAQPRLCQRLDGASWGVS

Row | SMILES | IA(β3)
1 | CCCCc1ccc(S(=O)(=O)N(CC(=O)OCC)c2ccc(N3CCC(NC[C@H](O)COc4cccc5[nH]c(=O)[nH]c45)CC3)cc2)cc1 [Example 336, Ethyl{[(4-butylphenyl)sulfonyl]-4-[4-({(2S)-2-hydroxy-3-[(2-oxo-2,3-dihydro-1H-benzimidazol-4-yl)oxy]propyl}amino)-1-piperidinyl]anilino}acetate] | 0.82
2 | CCOC(=O)CC(=O)N(c1ccc(N2CCC(NC[C@H](O)c3ccc(O)c(NS(C)(=O)=O)c3)CC2)cc1)C1CCCCC1 [Example 375, Ethyl 3-(cyclohexyl-4-{4-[((2R)-2-hydroxy-2-{4-hydroxy-3-[(methylsulfonyl)amino]-phenyl}ethyl)amino]-1-piperidinyl}anilino)-3-oxopropanoate] | 1
3 | CCCCN(C(=O)NCC(=O)OCC)c1ccc(N2CCC(NC[C@H](O)c3ccc(O)c(NS(C)(=O)=O)c3)CC2)cc1 [Example 379, Ethyl {[(butyl-4-{4-[((2R)-2-hydroxy-2-{4-hydroxy-3-[(methylsulfonyl)amino]phenyl}-ethyl)amino]-1-piperidinyl}anilino)carbonyl]amino}acetate] | 0.93
4 | COc1ccc(C(=O)Nc2ccc(N3CCC(NC[C@H](O)COc4cccc5[nH]c(=O)[nH]c45)CC3)cc2)cc1OC [Example 381, N-{4-[4-({(2S)-2-Hydroxy-3-[(2-oxo-2,3-dihydro-1H-benzimidazol-4-yl)oxy]propyl}-amino)-1-piperidinyl]phenyl}-3,4-dimethoxybenzamide] | 0.97
5 | CCCCS(=O)(=O)N(CC(=O)O)c1ccc(N2CCC(NC[C@H](O)c3ccc(O)c(NS(C)(=O)=O)c3)CC2)cc1 [Example 343, ((Butylsulfonyl)-4-{4-[((2R)-2-hydroxy-2-{4-hydroxy-3-[(methylsulfonyl)-amino]phenyl}ethyl)amino]-1-piperidinyl}anilino)acetic acid] | 0.86
6 | CCCCN(C(=O)CC(=O)O)c1ccc(N2CCC(NC[C@H](O)c3ccc(O)c(NS(C)(=O)=O)c3)CC2)cc1 [Example 374, 3-(Butyl-4-{4-[((2R)-2-hydroxy-2-{4-hydroxy-3-[(methylsulfonyl)amino]phenyl}-ethyl)amino]-1-piperidinyl}anilino)-3-oxopropanoic acid] | 1.2
7 | CCCCN(C(=O)NCC(=O)O)c1ccc(N2CCC(NC[C@H](O)c3ccc(O)c(NS(C)(=O)=O)c3)CC2)cc1 [Example 380, {[(Butyl-4-{4-[((2R)-2-hydroxy-2-{4-hydroxy-3-[(methylsulfonyl)amino]phenyl}ethyl)-amino]-1-piperidinyl}anilino)carbonyl]amino}acetic acid] | 1.1
8 | CCCCN(c1ccc(N2CCC(NC[C@H](O)c3ccc(O)c(NS(C)(=O)=O)c3)CC2)cc1)S(=O)(=O)CC(=O)O [Example 325, [(Butyl-4-{4-[((2R)-2-hydroxy-2-{4-hydroxy-3-[(methylsulfonyl)amino]phenyl}-ethyl)amino]-1-piperidinyl}anilino)sulfonyl]acetic acid] | 1
9 | CCOC(=O)CN(c1ccc(N2CCC(NC[C@H](O)c3ccc(O)c(NS(C)(=O)=O)c3)CC2)cc1)S(=O)(=O)c1ccc(OC)c(OC)c1 [Example 339, Ethyl([(3,4-dimethoxyphenyl)sulfonyl]-4-{4-[((2R)-2-hydroxy-2-{4-hydroxy-3-[(methylsulfonyl)amino]phenyl}ethyl)amino]-1-piperidinyl}anilino)acetate] | 0.89
10 | CS(=O)(=O)Nc1cc([C@@H](O)CNC2CCN(c3ccc(N(C(=O)CC(=O)O)C4CCCCC4)cc3)CC2)ccc1O [Example 376, 3-(Cyclohexyl-4-{4-[((2R)-2-hydroxy-2-{4-hydroxy-3-[(methylsulfonyl)amino]phenyl}-ethyl)amino]-1-piperidinyl}anilino)-3-oxopropanoic acid] | 1
11 | CCCCN(C(=O)CC(=O)OCC)c1ccc(N2CCC(NC[C@H](O)c3ccc(O)c(NS(C)(=O)=O)c3)CC2)cc1 [Example 373, Ethyl 3-(butyl-4-{4-[((2R)-2-hydroxy-2-{4-hydroxy-3-[(methylsulfonyl)amino]phenyl}-ethyl)amino]-1-piperidinyl}anilino)-3-oxopropanoate] | 1.1
